Test results published in PubChem BioAssay AID1671193 (National Center for Advancing Translational Sciences (NCATS), 2021).
Several values for one entry are separate records, joined by “and”; a condition that tells them apart may be missing. Identical values can stand only once. Screen size: about 150,000 compounds; about 180 (0.12%) were called active. Inconclusive means that the source gave no clear call. Such entries were picked first, then a sample of the others. The call rests on the fitted dose curve; in most records, active means well fitted cell-killing curve with a large enough effect; inconclusive means small, poorly fitted or top-dose-only effect, or effect the other way; inactive means flat fitted curve, though single readings scatter. A potency beside an inconclusive call is a rough fit, not a confirmed value.
Potency means the concentration at half of the fitted maximal effect; tags describe the fitted curve by direction and shape.

Assay: GF-AFC viability counterscreen for inhibitors of alpha-synuclein gene (SNCA) expression; further: nearly all actives have a fitted effect of over 30% in size
Settings: HEK-293-SNCA-luc viability, GF-AFC fluorescence, 24 h; series mostly up to 57.1 µM
In short: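 HEK-293-SNCA-luc cells (1500/well) plated 24 h, then exposed 24 h to a dilution series; GF-AFC added 30 min at 37C, fluorescence 405/540 nm; normalised to medium-only and DMSO wells, Hill fit.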
With `COc1ccc2c(c1)c(CCN1CCOCC1)c(C)n2C(=O)c1cccc(Cl)c1Cl` the Potency was inconclusive: 39.8 µM [cytotoxic, partial curve, poor fit].
For `CCC(CC)c1cc([C@H]2CN3CC[C@H]2C[C@@H]3CNC(=O)c2ccc(N(C)C)cc2)nc(-c2ccncc2)n1`, the Potency was inconclusive: 31.6 µM [cytotoxic, single point].
With `COC1CC(O[C@H]2CC[C@]3(C=O)C4CC[C@]5(C)[C@@H](C6=CC(=O)OC6)CC[C@]5(O)[C@@H]4CC[C@@H]3C2)OC(C)C1O[C@@H]1O[C@H](CO)[C@@H](O[C@@H]2O[C@H](CO)[C@@H](O)[C@H](O)[C@H]2O)[C@H](O)[C@H]1O` (stereo partly specified) the Potency was active: 5.66 µM.
With `CO[C@H]1[C@H](O)[C@H](O[C@H]2CC[C@]3(C)C4CC[C@]5(C)[C@H](C6=CC(=O)OC6)CC[C@]5(O)C4CC[C@@H]3C2)O[C@@H](C)[C@@H]1O` (stereo partly specified) the Potency was inconclusive: 0.146 µM [cytotoxic, full curve, poor fit].
For `Cc1ccc(-n2c(/C=C/c3cccs3)nc3ccccc3c2=O)cc1C`, the Potency was inconclusive: 14.1 µM [cytotoxic, partial curve, poor fit].
For `CCOC(=O)[C@H]1CN(C(=O)N2CCOCC2)[C@]2(C)C(=O)N(CC(=O)N(C)C)c3ccccc3[C@H]12`, the Potency was inconclusive: 17.8 µM [cytotoxic, single point].
In the case of `CCc1[nH]c2ccc(OC)cc2c1CCN(C)C`, the Potency is reported as “inactive”.
In the case of `CCN1CCCN(C(=O)COc2ccccc2)CC12CCOCC2`, the Potency is reported as “inactive”.
In the case of `CSc1ccc(-c2ccc(=O)n3c2[C@@H]2C[C@@H](CN(S(C)(=O)=O)C2)C3)cc1`, the Potency is reported as “inactive”.
For `O=S1(=O)NC2(CCN(Cc3ccc(Cl)s3)C2)COc2ccncc21` (stereo unspecified), the Potency was “inactive”.
For `COc1ccc(-c2nc(CN3C(=O)CN=C(c4ccccc4)c4cc(Cl)ccc43)c(C)o2)cc1`, the Potency was inconclusive: 35.5 µM [cytotoxic, partial curve, poor fit].
In the case of `CC1=C2C(=O)C3[C@@H](CC=C4C[C@@H](O)CC[C@@]43C)[C@@H]2CC[C@]12O[C@@H]1C[C@H](C)CN[C@H]1[C@H]2C` (stereo partly specified), the Potency is reported as inconclusive: 0.519 µM [cytotoxic, partial curve, poor fit].
In the case of `COc1cc2c(cc1CCc1ccccc1)N(C(=O)c1c[nH]c3ccccc13)CC21CCN(C(C)=O)CC1`, the Potency is reported as “inactive”.
In the case of `Cc1noc(C)c1CN1CCCCC1c1cccnc1` (stereo unspecified), the Potency is reported as “inactive”.
For `S=C(NC1CCCCC1)N1CCC(c2cnc[nH]2)CC1`, the Potency was inconclusive: 2.67 µM [rising, partial curve].
With `CC[C@H]1CN2CC[C@H]1C[C@@H]2CNC(=O)NC(C)C` the Potency was “inactive”.
In the case of `C/C=C(\C)C(=O)O[C@H]1[C@H](OC(C)=O)[C@]2(CO)[C@H](O)[C@H](O)[C@]3(C)C(=CCC4[C@@]5(C)CC[C@H](O[C@@H]6O[C@H](C(=O)O)[C@@H](O)[C@H](O[C@@H]7OC[C@H](O)[C@H](O[C@@H]8OC[C@H](O)[C@H](O)[C@H]8O)[C@H]7O)[C@H]6O[C@@H]6O[C@H](CO)[C@@H](O)[C@H](O)[C@H]6O)C(C)(C)C5CC[C@]43C)[C@@H]2CC1(C)C` (stereo partly specified), the Potency is reported as inconclusive: 0.201 µM [rising, full curve, poor fit].
For `Cc1ccccc1-n1c(/C=C/c2ccc(O)cc2)nc2ccccc2c1=O`, the Potency was inconclusive: 22.4 µM [rising, single point].
For `Cn1nc(-c2cccs2)cc1[C@H]1CN2CC[C@H]1C[C@@H]2CNS(=O)(=O)c1ccccc1`, the Potency was “inactive”.
With `O=C(C1CCCCC1)N1[C@H]2CC[C@@H]1c1cnc(-c3ccccc3)nc1C2` the Potency was “inactive”.
With `COc1cc2c(cc1OCC1CCCC1)N([S+](=O)([O-])c1cccc(C(F)(F)F)c1)CC21CCN(CC(=O)O)CC1` the Potency was “inactive”.
For `COc1cc2c(cc1OCC1CC1)NC(=O)C21CCN(c2ncc(C(C)C)cn2)CC1`, the Potency was “inactive”.
In the case of `O=C(O)COc1nc(Cl)c(Cl)cc1Cl`, the Potency is reported as inconclusive: 3.55 µM [rising, full curve, poor fit].
In the case of `O=c1ccc(-c2cccs2)c2n1C[C@H]1C[C@@H]2CN(S(=O)(=O)c2cccs2)C1`, the Potency is reported as “inactive”.
With `CC(C)=CCC[C@]1(C)C=Cc2c(O)c3c(c(CC=C(C)C)c2O1)O[C@]12C(=C[C@@H]4CC1C(C)(C)O[C@@]2(C/C=C(/C)C(=O)O)C4=O)C3=O` the Potency was active: 1.89 µM.
For `CN(N=O)c1ccc(O)c(O)c1`, the Potency was “inactive”.
In the case of `CC(=O)c1ccc(NC(=O)OC[C@H]2C[C@@H]3CCN2C[C@@H]3c2cc(C3CCCC3)nc(-c3ccncc3)n2)cc1`, the Potency is reported as “inactive”.
For `Cc1ccccc1-n1c(Cn2cnc3c(N)ncnc32)nc2cccc(C)c2c1=O`, the Potency was inconclusive: 857 nM [cytotoxic, full curve, poor fit] and inconclusive: 336 nM [cytotoxic, full curve, poor fit].
In the case of `COc1cc2c(cc1OCc1ccccc1)NC(=O)C21CCN(c2ccccn2)CC1`, the Potency is reported as “inactive”.
With `COc1cc(CC(C)N)cc2c1OCO2` (stereo unspecified) the Potency was inconclusive: 2.82 µM [rising, full curve, poor fit].
For `C=CC[C@]1(O)CC[C@H]2[C@@H]3CCC4=CC(=O)CCC4=C3C=C[C@@]21C`, the Potency was “inactive”.
In the case of `C[C@]12CC[C@H](O)C[C@H]1CC[C@@H]1[C@@H]2[C@H](O)C[C@]2(C)[C@@H](c3ccc(=O)oc3)CC[C@]12O`, the Potency is reported as inconclusive: 0.423 µM [cytotoxic, full curve, poor fit].
With `CC(C)[C@H]1OC(=O)[C@H](Cc2ccccc2)N(C)C(=O)[C@@H](C(C)C)OC(=O)[C@H](Cc2ccccc2)N(C)C(=O)[C@@H](C(C)C)OC(=O)[C@H](Cc2ccccc2)N(C)C1=O` the Potency was inconclusive: 0.63 µM [cytotoxic, partial curve, poor fit].
For `CCOc1ccc(NC(=O)c2cccn(Cc3cccc(Cl)c3)c2=O)cc1`, the Potency was inconclusive: 22.4 µM [rising, partial curve, poor fit].
In the case of `CC(Cc1ccc(O)cc1)NCC(O)c1cc(O)cc(O)c1` (stereo unspecified), the Potency is reported as inconclusive: 10 µM [rising, partial curve, poor fit].
In the case of `CNCCc1ccc(O)c(O)c1`, the Potency is reported as inconclusive: 12.6 µM [cytotoxic, partial curve, poor fit].
